ChEMBL document CHEMBL4888484, “Replenishing the malaria drug discovery pipeline: Screening and hit evaluation of the MMV Hit Generation Library 1 (HGL1) against asexual blood stage Plasmodium falciparum ,using a nano luciferase reporter read-out” (2022)
Screen size: about 150,000 compounds; about 540 (0.36%) showed an effect of 50% or more. Some of the results follow.

tested on: Plasmodium falciparum; assay: Primary screen in NF54 nanoGlo assay, in single point, at 2uM, 72h; a lower Z score goes with more inhibition; assay type: functional, Erythrocyte; conditions: timepoint 72 hour

SMILES | % Inhibition | Z score
Cc1nc(C(=O)Nc2c(F)cccc2NC(=O)OC(C)(C)C)co1 | 8% | -1.05
CCCNC(=O)[C@H](C)NC(=O)c1cc2n(n1)CCCN(Cc1ccccc1)C2=O | -1% | 0.12
CC(C)(C)c1nnc(Cn2cnc3c2CCCC3)o1 | -10% | 1.86
Clc1cccc(C2=Nc3ccc(Br)cc3C(c3cccc(Cl)c3)=Nc3ccc(Br)cc32)c1 | 6% | -0.57
O=C1C[C@H](Nc2ccc3c(c2)OCO3)C(=O)N1Cc1ccccc1 | -10% | 1.96
CS(=O)(=O)NCCOC(=O)c1c(F)cccc1F | -5% | 0.87
O=C([C@H]1CCS(=O)(=O)C1)N1CCC2(CCCCC2)C1 | 28% | -3.76
O=C(NCC(c1ccco1)c1ccco1)c1ccccc1 | -2% | 0.31
CC(C)(C)C(NC1CCN2CCCC2C1)c1ccc(F)cc1 (stereo not given) | 2% | -0.3
NC(=O)Nc1ccc(-c2csc(C3(NC(=O)c4ccccc4)CCCC3)n2)cc1 | -2% | 0.22
Brc1cc(Br)c2nc(-c3cnccn3)ccc2c1 | 33% | -4.31
Cc1nc(CC(=O)N2CCCN(C(=O)[C@@H]3CCCO3)CC2)cs1 | -8% | 0.76
Cc1ncccc1Oc1ncnc(N2CCC(NS(C)(=O)=O)CC2)c1C | -5% | 1
O=C(NCc1cccnn1)N1CCC[C@H]1C(F)F | -4% | 0.51
COc1ccc(Cn2c(N)c(C#N)c3c2CCCC3)cc1 | -2% | 0.35
COCCOc1ccc(N[C@@H](C)c2nnc(C)o2)cc1Cl | -22% | 2.05
COc1ccc(NC(=O)C2(N(Cc3ccccc3)C(=O)Cc3ccccc3)CCC3Cc4ccccc4CC3C2)c(OC)c1 (stereo not given) | -35% | 4.1
COc1cc(C2CN(C(=O)NC(C)(C)C)CC2C(=O)N2CCOCC2)cc(OC)c1OC (stereo not given) | -6% | 0.71
CCOC(=O)[C@@H]1CCCCN1c1cc(CCN)nc(C)n1 | -5% | 1.01
c1ccc(-c2nnn(Cn3nnc(-c4ccccc4)n3)n2)cc1 | -46% | 5.37
C[C@H]1CCc2c(sc(NC(=O)CN3CCN(Cc4ccc(Cl)s4)CC3)c2C#N)C1 | -4% | 0.82
NC(=O)[C@H]1CCCN(C(=O)CC2CCCC2)C1 | 4% | -0.47
CCc1cccc(NC(=O)c2cc(S(=O)(=O)N3CCCCCC3)cn2C)c1 | -2% | 0.39
NC[C@H](c1nc(CS(=O)(=O)C2CC2)no1)C1CCCCCC1 | 2% | -0.28
O=C(O)c1ccc(NS(=O)(=O)c2ccc3ncccc3c2)c(O)c1 | -3% | 0.56
Cc1ocnc1C(=O)N[C@@H]1COC2(CCCCC2)C1 | -7% | 1.19
COC[C@]1(S(=O)(=O)NCCNc2ccccc2)C[C@@H]1C | -6% | 0.98
O=S(=O)(c1ccc(F)cc1)N1c2cc(Cl)ccc2Oc2nc3ccccc3nc21 | 8% | -1.45

SMILES | % Inhibition | Z score
Cc1cc(Cl)ccc1N1C(=O)N[C@@H](Cc2c[nH]c3ccc(Br)cc23)C1=O | -9% | 0.84
Cc1ccc(C)c(-c2cc(C(=O)N[C@H](C(=O)NC3CC3)C(C)C)no2)c1 | -7% | 0.9
CCCn1cnc2c1c(=O)n(CC1CC1)c(=O)n2-c1cccc(OC)c1 | -6% | 0.91
O=C1CCC(=O)N1C1CN(S(=O)(=O)c2cc(F)ccc2F)C1 | 3% | -0.3
CC(=O)N[C@H]1CCN(C(=O)[C@H]2Cc3ccc(cc3)Oc3cccc(c3)C(=O)N[C@@H](CC(C)C)C(=O)N2)C1 | -11% | 2.15
CC[C@H](C)N(Cc1ccc(OS(=O)(=O)CC)cc1)C(=O)C1CCCC1 | 0% | -0.01
O=C(O)c1ccc(NC2=NCCC2)cc1 | -11% | 1.6
CC(NC(CC1CCC1)c1ccccc1)c1cnn(C)n1 (stereo not given) | -5% | 0.78
CCCCc1nc(Cn2nc3cnccn3c2=O)cs1 | 2% | -0.25
C[C@H]1COc2ccccc2N1CC(=O)NCc1ccco1 | -8% | 0.89
CC(NC(=O)NCC(c1ccco1)N1CCCC1)c1ccncc1 (stereo not given) | -11% | 1.46
Cc1c(Br)cncc1NC(=O)N1CCCc2n[nH]cc21 | -12% | 1.29
COCC1(NCc2cc(OC)ccc2F)CCC1 | 3% | -0.47
CCc1ccc(NC(=O)CNC(C)=O)cc1CC | 16% | -1.86
CCc1occc1-c1nc(Cc2cccnc2)no1 | -11% | 2.21
CC(C)(C)OC(=O)N1CCC(N(Cc2ccccn2)C(=O)c2ccccc2)CC1 | 2% | -0.4
COc1ccccc1N(C)CC(=O)c1c[nH]c2ccccc12 | -4% | 0.53
O[C@@H]1C[C@@H](c2nc(Cc3ccc(F)cc3Cl)no2)N(C2CCCCC2)C1 | 16% | -1.82
CC(C)(C)c1cc(CN2CCC(CCC(=O)NCc3cccnc3)CC2)n[nH]1 | -9% | 1.37
CNc1ccnc(N2CCC[C@H](Cn3ccnc3)C2)n1 | -5% | 0.63
O=C(Nc1ccccc1OC[C@H]1CCCO1)c1cnc(C2CC2)nc1 | -5% | 0.85
O=C1NCC(C(=O)N2CCCC2c2ccc3c(c2)OCCO3)N1 (stereo not given) | 6% | -1.08
CNC[C@H]1CCCN1C(=O)c1[nH]nc(C(C)C)c1Br | 0% | -0.03
Cc1cc(S(=O)(=O)N2CCC3(CCC(=O)N3Cc3c(C)noc3C)CC2)ccc1F | 9% | -1.14
CC(CC(O)c1ccco1)Nc1cncc(Br)c1 (stereo not given) | -7% | 0.99
Cc1nc(CN(Cc2ccncc2)Cc2ccc(C)s2)c[nH]1 | -8% | 1.04
C[C@]1(c2cccc(F)c2)CCN(Cc2cn[nH]c2)C1 | -9% | 0.79
